# From article PMC4336329 (PLoS ONE, 2015)
# Hit rate of the full screen: of about 310,000 compounds, about 14,000 (4.5%) showed an effect of 50% or more. The effect is printed as a negative number. The list shows a part of the results.
# Target: human ether-à-go-go-related gene (hERG) potassium channel (human, UniProt Q12809)
# Experiment: primary screen, population patch clamp on CHO cells stably expressing hERG
# 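Further: peak tail current of the secondary pulse compared with the same well before compound.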
# Chain of human ether-à-go-go-related gene (hERG) potassium channel (Q12809 whole entry, looked up): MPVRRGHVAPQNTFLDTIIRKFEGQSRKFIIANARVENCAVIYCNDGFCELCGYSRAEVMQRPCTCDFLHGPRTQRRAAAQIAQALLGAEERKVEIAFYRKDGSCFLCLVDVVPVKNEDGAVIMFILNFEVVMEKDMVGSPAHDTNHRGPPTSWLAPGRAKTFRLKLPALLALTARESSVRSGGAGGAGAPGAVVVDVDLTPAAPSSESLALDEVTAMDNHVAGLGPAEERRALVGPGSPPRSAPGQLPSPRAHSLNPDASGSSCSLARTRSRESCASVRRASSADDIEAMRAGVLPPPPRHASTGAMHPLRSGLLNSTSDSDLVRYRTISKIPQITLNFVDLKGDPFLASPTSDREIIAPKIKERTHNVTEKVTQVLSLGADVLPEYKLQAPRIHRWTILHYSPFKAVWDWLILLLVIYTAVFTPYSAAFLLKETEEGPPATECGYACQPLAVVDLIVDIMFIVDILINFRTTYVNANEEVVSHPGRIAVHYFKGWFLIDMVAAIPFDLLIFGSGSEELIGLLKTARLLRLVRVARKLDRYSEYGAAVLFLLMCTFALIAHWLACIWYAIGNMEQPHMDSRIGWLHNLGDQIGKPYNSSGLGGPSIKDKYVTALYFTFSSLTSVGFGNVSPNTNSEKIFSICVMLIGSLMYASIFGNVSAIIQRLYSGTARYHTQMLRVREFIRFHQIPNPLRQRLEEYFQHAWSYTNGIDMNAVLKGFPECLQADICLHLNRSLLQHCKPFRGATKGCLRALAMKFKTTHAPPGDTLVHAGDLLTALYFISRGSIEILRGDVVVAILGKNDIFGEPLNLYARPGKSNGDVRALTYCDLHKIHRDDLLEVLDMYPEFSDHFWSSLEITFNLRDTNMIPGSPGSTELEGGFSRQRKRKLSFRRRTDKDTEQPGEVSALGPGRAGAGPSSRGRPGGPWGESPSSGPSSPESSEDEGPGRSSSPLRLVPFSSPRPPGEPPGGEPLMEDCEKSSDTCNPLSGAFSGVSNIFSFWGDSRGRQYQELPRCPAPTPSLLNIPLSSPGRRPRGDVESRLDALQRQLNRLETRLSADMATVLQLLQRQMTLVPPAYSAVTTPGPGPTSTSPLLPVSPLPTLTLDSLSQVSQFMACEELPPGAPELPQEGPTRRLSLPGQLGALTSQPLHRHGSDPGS
row,SMILES,"hERG current change (%, negative = inhibition) at 10uM [%]"
1,Cc1ccccc1-n1ccnc1SCC(=O)NC1CCCC1,4.38
2,C=CCN1CN(S(=O)(=O)c2cccs2)c2nc3ccccc3nc21,-13.4
3,CCCCc1nc2sc3c(=O)n(N)cnc3c2c2c1CCCC2,10.4
4,COc1ccc(C2=C(C)CC(C)(C)NC2=O)cc1OC,21.8
5,O=C1c2nccnc2C(=O)N1c1ccc(F)cc1,15.4
6,N#CCSc1nc(-c2ccccc2)cs1,3.49
7,CCc1ccc(-c2ccc(C(=O)C(F)(F)F)[nH]2)cc1,9.61
8,COC(=O)CNC(=S)NC(=O)c1ccc(C(C)(C)C)cc1,-22.3
9,Cc1ccc(Cl)cc1NC(=O)CN1CCN(S(=O)(=O)N2CCOCC2)CC1,-64.3
10,COc1ccc(CCN2C(=NC(=O)C(C)C)SC3CS(=O)(=O)CC32)cc1OC (stereo not drawn),1.39
11,CCOc1cc2[nH]c(=O)n(CCc3ccc(OC)c(OC)c3)c(=O)c2cc1OCC,18.5
12,CCOC(=O)c1[nH]c2ccccc2c1NC(=O)c1cc(OC)c(OC)c(OC)c1,-8.76
13,COc1ccc(NC(=O)c2cc(-c3cc(C)ccc3O)n[nH]2)cc1Cl,-8.07
14,Cc1cc(C)c(C#N)c(SCc2cc3c(cc2Cl)OCO3)n1,4.96
15,Cc1cnn2c(C3CC3)ccnc12,4.03
16,O=c1cc(N=Nc2ccc(Cl)cc2)[nH]c(=O)[nH]1,9.49
17,O=C/C(=C\Nc1ccc(S(=O)(=O)CCO)cc1)c1nc2cc(Cl)ccc2o1,-38.2
18,COc1cccc(CNC(=O)Cn2nc(-c3ccc(Cl)cc3)ccc2=O)c1,-44.8
19,Cc1cc(C(=O)COC(=O)CC2Sc3ccccc3NC2=O)c(C)n1-c1ccccc1 (stereo not drawn),28
20,O=C(C1CCC1)N1CCN(c2ccccc2)CC1,13.6
21,CC(=O)c1ccc(N(C(=O)CS(=O)CC(=O)Nc2ccc(F)cc2)C(C(=O)NC2CCCCC2)c2cccs2)cc1 (stereo not drawn),13.1
22,CSc1ccc(/C=C/C(=O)OCC(=O)NCC2CCCO2)cc1 (stereo not drawn),6.36
23,Cc1ccc(-n2nc3ccc(N)cc3n2)cc1Cl,34.5

row,SMILES,"hERG current change (%, negative = inhibition) at 10uM [%]"
1,Cc1ccc(NC2=C(NCCO)C(=O)c3ccccc3C2=O)cc1,-9.55
2,Nc1cc(C(F)(F)F)cc([N+](=O)[O-])c1N,5.85
3,COC(=O)c1ccc(Cn2nnc3c(=O)[nH]c(C4CCN(S(=O)(=O)c5ccc(F)cc5)CC4)nc32)cc1,-70.3
4,Cn1c(C=O)c(C#Cc2ccccc2)c2ccccc21,3.31
5,O=C(CN1C(=O)/C(=C/c2cccc(Cl)c2)SC1=S)NC1C=CS(=O)(=O)C1 (stereo not drawn),7.97
6,CCCOC(=O)c1ccc(-[n+]2c(-c3ccccc3)cc(-c3ccccc3)cc2-c2ccccc2)cc1.[O-][Cl+3]([O-])([O-])[O-],-77.2
7,CCCCCCNC(=O)CCNS(=O)(=O)c1ccc(C)cc1,-12.8
8,CC1CC(C)CN(CCCNC(=O)C2CCN(c3ncnc4c3sc3cccc(F)c34)CC2)C1 (stereo not drawn),-65.8
9,NS(=O)(=O)c1ccc(NC(=O)COC(=O)CCc2c[nH]c3ccccc23)cc1,22
10,C=CCn1c(SCC(=O)Nc2cccnc2Cl)nnc1-c1ccccc1F,-15.5
11,Cc1nc2ccccc2n1-c1ccccc1,-10.2
12,CC1(CCC#N)N=C(SCCC#N)N(c2ccccc2)C1=O (stereo not drawn),2.7
13,CC(=O)OC(C(=O)NC1CCCCC1)c1cccc(F)c1 (stereo not drawn),16.5
14,O=C(CSc1cn(CCNC(=O)c2cccs2)c2ccccc12)NCC1CCCO1 (stereo not drawn),-17.9
15,O=C(NC1CCN(S(=O)(=O)c2ccccc2)CC1)c1ccccc1,5.3
16,CC(NS(=O)(=O)c1ccc(Cl)cc1)C(=O)N1CCOCC1 (stereo not drawn),6.2
17,COc1ccc(OC)c(-c2nc(CN3CCN(C(=O)c4ccco4)CC3)c(C)o2)c1,-21.9
18,CCCn1c(C(C)Nc2nc(-c3ccc(OC)cc3)cs2)nc2ccccc21 (stereo not drawn),6.2
19,CCc1ccc(OCC(=O)Nc2ncn[nH]2)cc1,13.1
20,C/C(=N\O)C(=O)NCc1ccccn1,-3.01
21,CN1CCN(c2ccccc2NC(=O)c2cccc(OCc3ccccc3)c2)CC1,-78.9
22,COCC(=O)Nc1ccc(S(=O)(=O)Nc2cc(C)nc(C)n2)cc1,12.2
23,CCOC(=O)NNc1cc(C(F)(F)F)ccn1,6.87

row,SMILES,"hERG current change (%, negative = inhibition) at 10uM [%]"
1,O=C(NCc1ccccc1)C(=O)NCC1CCCN1S(=O)(=O)c1cccs1 (stereo not drawn),-11.6
2,O=C(CN1C(=O)S/C(=C\c2cccs2)C1=O)Nc1ccc(O)cc1C(=O)O,8.88
3,O=C(NCCCN1CCOCC1)c1cccc(S(=O)(=O)Nc2ccccc2Cl)c1,7.43
4,COc1ccc(CCNC(=O)c2cc(-c3ccccc3)on2)cc1OC,14.8
5,C/C(=N\NC(=O)Cc1cccn1C)c1ccc([N+](=O)[O-])cc1,-5.82
6,COc1cccc2cc(C(=O)N3CCc4ccccc43)c(=O)oc12,12.4
7,C=CCn1c(N2CCCC2)nc2c1c(=O)[nH]c(=O)n2C,0.472
8,CC1=C(C(=O)Nc2ccc(F)cc2)C(c2ccc(C)o2)C2=C(CC(C)(C)CC2=O)N1 (stereo not drawn),-7.85
9,O=C(COc1ccc(Br)cc1)N1CCCCCC1,-22.9
10,COC(=O)c1ccc(COc2ccccc2[N+](=O)[O-])o1,10.5
11,O=C(Nc1ccccc1)c1cnc(-c2ccccc2)nc1-c1ccccc1,-9.72
12,NS(=O)(=O)c1ccc(NN=C2CCN(Cc3ccccc3)CC2)c([N+](=O)[O-])c1,-17.6
13,O=C(Nc1ccc2c(c1)OCCO2)c1ccc2ccccc2n1,13.6
14,COc1ccc(C(=O)OCC(=O)Nc2sccc2C(N)=O)cc1[N+](=O)[O-],-3.28
15,CCOC(=O)c1nc2nc(C)c(Cl)c(=O)n2[nH]1,0.341
16,Cc1ccc(N(CC(=O)NCC2CCCO2)C(=O)CNS(=O)(=O)c2ccc(Cl)cc2)cc1 (stereo not drawn),-13.7
17,Cc1ccc(C(=O)NCCSc2ccccc2)cc1S(=O)(=O)Nc1ccccc1,-15
18,COc1ccccc1N1CCN(CC(=O)Nc2ccccc2C(=O)NC(C)c2ccccc2)CC1 (stereo not drawn),-16.6
19,COc1ccc(-c2cc(C(=O)N(C)CCc3ccc(OC)c(OC)c3)c3ccccc3n2)cc1,-29.4
20,Cc1cc(S(=O)(=O)Nc2ccc3cn[nH]c3c2)c(C)cc1Cl,-0.242
21,FC(F)(F)c1ccc2c(c1)N1CCCC1CN2 (stereo not drawn),0.773
22,O=S(=O)(NCC(c1cccnc1)N1CCN(c2ccccc2)CC1)c1cccs1 (stereo not drawn),-60.4
23,COC(=O)c1ccc(NC(=S)NC2CCCCC2)cc1,1.13

row,SMILES,"hERG current change (%, negative = inhibition) at 10uM [%]"
1,CCOC(=O)C1CCN(C(=O)CCc2nnc3ccc(NCCCN4CCCC4=O)nn23)CC1,12.2
2,COc1ccc(-c2cc(C(F)(F)F)n3nc(C(=O)N4CCCCC4)cc3n2)cc1,0.834
3,CCNc1nc(NCC)n2c(SCC(=O)O)nnc2n1,9.66
4,COc1ccc(Cl)cc1NC(=O)COC(=O)Cc1cccs1,-7.76
5,O=C(CSc1ccc2ccccc2n1)N1CCC(c2noc3ccc(F)cc23)CC1,-8.94
6,CCOC(=O)C(Cc1ccccc1)C(=O)Nc1ccccc1C (stereo not drawn),9.21
7,COc1cc(/C=N/NC(=S)NCCc2ccccc2)cc(OC)c1OC,8.26
8,O=C(CSC1=NCCS1)NC1CCCCC1,15.1
9,Cc1ccc(-n2c(-c3ccncc3)nnc2-c2ccco2)cc1,0.0739
10,c1ccc(C2=NNC(=NC3CC3)SC2)cc1,-1.96
11,COc1ccc(C(C)NC(=O)c2ccccc2)cc1 (stereo not drawn),-11.7
12,CCCCN1C2CCCC1CC(NC(=O)c1cccc(OC)c1)C2 (stereo not drawn),-19.3
13,CCn1c(C)cc(/C=C2\C(=O)NC(=O)N(c3ccccc3C)C2=O)c1C,-5.18
14,Cc1ccc(N2C(=O)c3ccccc3NC2c2ccccc2O)cc1 (stereo not drawn),23.7
15,Cc1csc(SCC(=O)Nc2ccccc2C)n1,13.2
16,O=C(O)c1cccc(-n2cccc2/C=C2/NC(=O)N(Cc3ccccc3F)C2=O)c1,14.1
17,COc1cc(NC(=S)NCCc2ccccc2)c(OC)cc1NC(=O)C(C)C,-11
18,CC(C)CN(CCCNC(=O)CN1C(=O)COc2ccc(S(=O)(=O)N3CCOCC3)cc21)CC(C)C,6.18
19,Cc1cccc(NC(=O)CSc2nnnn2-c2cccnc2)c1,-6.57
20,COc1cccc(C2=N/C(=C\N(C)C)C(=O)O2)c1,7.67
21,O=C(NC1CCCC1)C1CCCN(S(=O)(=O)c2ccc(-n3cnnn3)cc2)C1 (stereo not drawn),-11.9
